Laboratory results reported in the supplement of paper PMC6531468.
The list shows a part of the results. Read counts after selection give these values, which scatter widely. Each score is taken over the longer molecules that contain the sequence shown.

What was measured:
Assay in all cases: 6-mer SELEX enrichment z-score vs GST control; IMP3 is the RNA-binding protein IGF2BP3; higher = more enriched by binding
IMP3 KH1-4 = details: construct: KH1-4 (164-579); SELEX round: R4
Description: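 SELEX-seq with GST-tagged IMP3 KH1-4 (Pro164-Lys579) and an N40 RNA pool, round 4. 6-mer z-score of sequence-tag enrichment normalised to the corresponding GST SELEX round; RNA k-mers written as DNA (T for U).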

IMP3 RRM1-2 = details: construct: RRM1-2 (1-163); SELEX round: R2
Description: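 SELEX-seq with GST-tagged IMP3 RRM1-2 (Met1-Asn163) and an N40 RNA pool, round 2. 6-mer enrichment z-score normalised to GST SELEX. RNA written as DNA (T = U).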

IMP3 full-length = IMP3 full-length (UniProt O00425); details: construct: FL IMP3 (1-579); SELEX round: R4
Description: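 SELEX-seq with GST-tagged full-length IMP3 and an N40 RNA pool, round 4. Each 6-mer is scored as an enrichment z-score of sequence tags containing it, normalised to the matching GST SELEX round. RNA written as DNA (T = U).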

IMP3 KH1-2 = details: construct: KH1-2 (164-376); SELEX round: R4
Description: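 SELEX-seq with GST-tagged IMP3 KH1-2 (Pro164-Phe376) and an N40 RNA pool, round 4 (stringent 300/600 mM KCl washes). 6-mer z-score of sequence-tag enrichment normalised to the corresponding GST SELEX round; RNA k-mers written as DNA (T for U).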

IMP3 KH3-4 = details: construct: KH3-4 (377-579); SELEX round: R4
Description: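 SELEX-seq with GST-tagged IMP3 KH3-4 (Pro377-Lys579) and an N40 RNA pool, round 4. 6-mer z-score of sequence-tag enrichment normalised to the corresponding GST SELEX round; RNA k-mers written as DNA (T for U).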

Sequence of IMP3 RRM1-2 (chain, as listed by the source): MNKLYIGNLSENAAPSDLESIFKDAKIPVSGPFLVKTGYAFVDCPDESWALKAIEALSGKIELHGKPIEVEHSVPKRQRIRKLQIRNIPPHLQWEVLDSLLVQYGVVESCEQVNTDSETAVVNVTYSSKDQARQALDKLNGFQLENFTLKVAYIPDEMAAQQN
Sequence of IMP3 KH1-4 (chain, as listed by the source): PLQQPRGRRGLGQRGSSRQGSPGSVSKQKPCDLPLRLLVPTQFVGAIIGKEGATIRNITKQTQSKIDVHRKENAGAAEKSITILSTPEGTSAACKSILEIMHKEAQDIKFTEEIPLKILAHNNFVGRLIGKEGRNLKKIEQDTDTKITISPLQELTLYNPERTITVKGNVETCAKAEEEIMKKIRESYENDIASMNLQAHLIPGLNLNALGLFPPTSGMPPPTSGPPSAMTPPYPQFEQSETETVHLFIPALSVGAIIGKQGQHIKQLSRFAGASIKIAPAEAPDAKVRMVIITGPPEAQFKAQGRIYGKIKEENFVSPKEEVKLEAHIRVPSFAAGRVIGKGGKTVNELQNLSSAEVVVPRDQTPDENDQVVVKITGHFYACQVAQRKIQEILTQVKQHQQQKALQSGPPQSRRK
Sequence of IMP3 KH1-2 (chain, as listed by the source): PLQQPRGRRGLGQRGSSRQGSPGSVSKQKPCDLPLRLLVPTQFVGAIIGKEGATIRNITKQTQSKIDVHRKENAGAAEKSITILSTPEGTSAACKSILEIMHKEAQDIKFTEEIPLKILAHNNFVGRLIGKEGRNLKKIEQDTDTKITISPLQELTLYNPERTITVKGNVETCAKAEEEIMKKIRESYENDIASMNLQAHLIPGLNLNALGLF
Sequence of IMP3 KH3-4 (chain, as listed by the source): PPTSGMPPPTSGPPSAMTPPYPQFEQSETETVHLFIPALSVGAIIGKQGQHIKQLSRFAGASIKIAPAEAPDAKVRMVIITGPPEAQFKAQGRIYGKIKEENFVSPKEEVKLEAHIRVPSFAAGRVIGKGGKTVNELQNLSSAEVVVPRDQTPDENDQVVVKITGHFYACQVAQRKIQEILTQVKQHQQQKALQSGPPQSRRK
Sequence of UniProt O00425 (O00425 whole entry): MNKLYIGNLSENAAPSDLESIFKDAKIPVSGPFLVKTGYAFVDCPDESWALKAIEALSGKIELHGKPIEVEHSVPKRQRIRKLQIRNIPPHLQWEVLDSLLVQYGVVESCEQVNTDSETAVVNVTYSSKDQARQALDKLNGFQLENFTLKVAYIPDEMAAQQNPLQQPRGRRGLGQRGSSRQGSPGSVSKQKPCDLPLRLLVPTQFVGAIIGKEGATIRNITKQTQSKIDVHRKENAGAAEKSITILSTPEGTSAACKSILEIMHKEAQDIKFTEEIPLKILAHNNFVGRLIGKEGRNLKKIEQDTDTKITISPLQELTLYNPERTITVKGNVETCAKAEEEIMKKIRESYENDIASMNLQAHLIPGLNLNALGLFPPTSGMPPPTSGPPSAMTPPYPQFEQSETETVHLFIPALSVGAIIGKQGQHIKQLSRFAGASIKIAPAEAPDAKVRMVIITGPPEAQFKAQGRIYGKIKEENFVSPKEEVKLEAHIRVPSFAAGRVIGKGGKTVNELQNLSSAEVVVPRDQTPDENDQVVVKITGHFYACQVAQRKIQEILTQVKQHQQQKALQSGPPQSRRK

Sequence	6-mer SELEX enrichment z-score (IMP3 KH1-4)	6-mer SELEX enrichment z-score (IMP3 RRM1-2)	6-mer SELEX enrichment z-score (IMP3 full-length)	6-mer SELEX enrichment z-score (IMP3 KH1-2)	6-mer SELEX enrichment z-score (IMP3 KH3-4)
CGTGAT	0.052	-0.201	-0.222	-0.136	0.024
GTGGTA	-0.245	0.245	-0.028	-0.139	-0.025
GCTTGT	-0.048	0.337	0.01	-0.016	0.114
AGGACC	-0.533	0.545	-0.419	-0.635	-0.834
TACGTT	-0.015	0.098	-0.206	-0.094	0.049
CGCGTG	-1.61	-0.12	-0.764	-1.35	-1.29
GACCGC	-0.369	-0.841	-0.285	-0.202	-0.952
GCTTCG	-0.424	0.313	-0.054	-0.29	-0.21
TCCTAC	0.028	0.01	-0.372	-0.009	-0.315
CTCTAA	-0.143	-0.189	-0.557	-0.136	-0.195
GTGATT	0.348	-0.05	-0.147	0.139	0.485
CCGCAT	0.662	0.545	0.95	0.684	0.006
AACAAT	1.51	0.772	1.19	2.1	2.23
GTCCTA	-0.054	-0.116	-0.318	-0.183	-0.157
CACGAA	-0.231	-0.346	-0.074	-0.242	-0.4
TGAGAA	0.244	-1.06	-0.641	0.105	0.731
TTTCGA	-0.836	0.133	-0.556	-0.717	-0.595
TGTCTA	-0.146	0.107	-0.122	-0.191	-0.055
GTGCTC	-0.396	0.313	0.099	-0.244	-0.248
CCAGTA	0.076	-0.132	0.059	-0.061	-0.094
TATAAC	1.53	-0.307	-0.079	1.48	2.09
GGTCTT	-0.04	0.446	0.187	0.013	0.184
TCACAT	1.73	2.3	2.4	1.84	1.22
GCGTCT	-0.222	0.728	0.538	-0.01	0.102
TGAGGG	0.562	-0.023	0.27	0.679	0.791
GGGAAC	-0.006	-0.376	-0.044	0.045	-0.07
GCGCTG	-0.417	0.064	0.006	-0.236	-0.266
GACGTT	-0.862	-0.182	-0.485	-0.818	-0.641
